Measured values taken from the supplement of paper PMC11876631.
Changes are numbered by the printed parent chain. Names and notes keep the numbering of the source. ± gives the standard deviation of the averaged measurements. Laboratory Escherichia coli strains with one amino-acid change in an essential protein, pooled on minimal glucose agar with carbenicillin or gentamicin at twice the control MIC (plus kanamycin and chloramphenicol for the plasmids), 48 h. Fold change of barcode share against drug-free plates; higher = less susceptible. Active = above 20 in both replicates (the paper's putatively resistant). '<' = one read or none on drug, '>' = one read or none on a drug-free plate. Shares are relative, so most strains fall below 1 when a few take over. Listed are strains with at least 15 reads on both drug-free plates, and hits; most hits rest on fewer reference reads. Replicate rank correlation about 0.5. Edits are read from barcodes.

B1: ilvD I37P (protein)
chain: MPKYRSATTTHGRNMAGARALWRATGMTDADFGKPIPAVVNSFTQFVPGHVHLRDLGKLVAEQIEAAGGVAKEFNTIAVDDGIAMGHGGMLYSLPSRELIADSVEYMVNAHCADAMVCISNCDKITPGMLMASLRLNIPVIFVSGGPMEAGKTKLSDQIIKLDLVDAMIQGADPKVSDSQSDQVERSACPTCGSCSGMFTANSMNCLTEALGLSQPGNGSLLATHADRKQLFLNAGKRIVELTKRYYEQNDESALPRNIASKAAFENAMTLDIAMGGSTNTVLHLLAAAQEAEIDFTMSDIDKLSRKVPQLCKVAPSTQKYHMEDVHRAGGVIGILGELDRAGLLNRDVKNVLGLTLPQTLEQYDVMLTQDDAVKNMFRAGPAGIRTTQAFSQDCRWDTLDDDRANGCIRSLEHAYSKDGGLAVLYGNFAENGCIVKTAGVDDSILKFTGPAKVYESQDDAVEAILGGKVVAGDVVVIRYEGPKGGPGMQEMLYPTSFLKSMGLGKACALITDGRFSGGTSGLSIGHVSPEAASGGSIGLIEDGDLIAIDIPNRGIQLQVSDAELAARREAQDARGDKAWTPKNRERQVSFALRAYASLATSADKGAVRDKSKLGG
B2: ilvD F43P (protein)
chain: B1 chain with P37I, F43P
B3: ilvD F43Q (protein)
chain: B1 chain with P37I, F43Q
B4: ilvE V51A (protein)
chain: MTTKKADYIWFNGEMVRWEDAKVHVMSHALHYGTSVFEGIRCYDSHKGPVAFRHREHMQRLHDSAKIYRFPVSQSIDELMEACRDVIRKNNLTSAYIRPLIFVGDVGMGVNPPAGYSTDVIIAAFPWGAYLGAEALEQGIDAMVSSWNRAAPNTIPTAAKAGGNYLSSLLVGSEARRHGYQEGIALDVNGYISEGAGENLFEVKDGVLFTPPFTSSALPGITRDAIIKLAKELGIEVREQVLSRESLYLADEVFMSGTAAEITPVRSVDGIQVGEGRCGPVTKRIQQAFFGLFTGETEDKWGWLDQVNQ
B5: ilvE V51W (protein)
chain: B4 chain with A51W

Biological target: Escherichia coli (laboratory strain)
Test: barcode share on antibiotic plates over drug-free plates; higher = less susceptible
Experimental: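 A pool of E. coli strains, each edited to carry one amino-acid change in an essential protein, was grown for 48 h on minimal glucose agar with or without antibiotic; strain barcodes were sequenced; mean of two replicates.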

[1] = antibiotic: carbenicillin, 2× MIC (3.1 µg/mL)
[2] = antibiotic: gentamicin, 2× MIC (MIC 0.45 µg/mL)

| Protein | fold change of barcode share [1] | fold change of barcode share [2] |
| --- | --- | --- |
| B1 | > 54.1 [active] |  |
| B2 | > 37.3 [active] |  |
| B3 | > 32.6 [active] |  |
| B4 | 0.254 ± 0.033 | 0.0101 ± 0.0067 |
| B5 | 0.307 ± 0.17 | < 0.0116 |
